# Experimental data: PubChem BioAssay (Tox21)
# The inconclusive results got no clear call from the source; some entries with a clear call stand among them for comparison. For part of these data: A potency beside an inconclusive call is a rough fit, not a confirmed value. Active and inactive are the calls of the source. Calls follow the shape of the dose curve; as a rule, active = well fitted curve in the direction sought with a large enough effect in the repeat runs; inconclusive = weak or mixed curves; inactive = no such curve, though single readings can be large; an effect the other way counts as inactive or inconclusive.
# Biological target: Androgen receptor (Homo sapiens) (UniProt P10275)
# Chain of UniProt P10275 (P10275 whole entry, looked up): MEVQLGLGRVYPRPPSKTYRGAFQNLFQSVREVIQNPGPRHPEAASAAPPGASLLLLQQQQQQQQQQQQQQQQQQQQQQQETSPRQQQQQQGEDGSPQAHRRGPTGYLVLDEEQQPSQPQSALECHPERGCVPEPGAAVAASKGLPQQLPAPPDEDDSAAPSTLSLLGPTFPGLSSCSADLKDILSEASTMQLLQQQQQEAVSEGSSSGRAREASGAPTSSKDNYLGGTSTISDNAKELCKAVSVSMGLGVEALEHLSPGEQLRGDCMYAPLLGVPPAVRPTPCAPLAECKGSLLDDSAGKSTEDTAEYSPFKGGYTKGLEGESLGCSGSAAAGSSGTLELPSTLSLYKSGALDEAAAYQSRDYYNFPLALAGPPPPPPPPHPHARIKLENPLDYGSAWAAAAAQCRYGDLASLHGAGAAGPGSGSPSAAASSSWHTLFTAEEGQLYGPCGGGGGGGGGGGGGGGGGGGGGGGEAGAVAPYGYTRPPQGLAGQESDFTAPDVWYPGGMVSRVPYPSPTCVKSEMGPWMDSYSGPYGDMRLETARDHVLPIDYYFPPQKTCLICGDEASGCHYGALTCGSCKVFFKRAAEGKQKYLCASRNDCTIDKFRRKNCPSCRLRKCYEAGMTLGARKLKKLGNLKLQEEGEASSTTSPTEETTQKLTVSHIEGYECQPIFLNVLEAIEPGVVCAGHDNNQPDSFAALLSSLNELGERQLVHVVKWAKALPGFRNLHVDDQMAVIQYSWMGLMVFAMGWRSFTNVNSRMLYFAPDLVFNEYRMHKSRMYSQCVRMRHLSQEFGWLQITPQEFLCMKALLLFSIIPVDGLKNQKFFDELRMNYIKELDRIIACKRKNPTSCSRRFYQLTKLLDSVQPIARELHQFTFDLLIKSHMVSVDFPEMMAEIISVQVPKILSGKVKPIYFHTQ
# Assay: qHTS assay to identify small molecule agonists of the androgen receptor (AR) signaling pathway using the MDA cell line (AID 743040; also: nearly all actives have a fitted effect of over 20% in size)
# Conditions: MDA-kb2 AR-luc cells, MMTV luciferase, 16 h; activity change: at 70.3 µM (top of the series), hits give high values
# Summary of the method: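 Cells plated, 5 h at 37C/0% CO2; compound or DMSO pinned; 16 h at 37C; ONE-Glo added; luminescence measured after 30 min at room temperature. Reporter line: MDA-kb2 with MMTV-luciferase responsive to AR and GR.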
# % is scaled to controls: 0 for no effect and ±100 for the full control effect; tags tell the direction and shape of the fitted curve.
SMILES,Potency,activity change
CCc1ccc(O)cc1,inactive,
CCCSS/C(CCO)=C(\C)N(C=O)Cc1cnc(C)nc1N,inactive,
Cc1ccc2nc(-c3ccc(N)cc3)sc2c1S(=O)(=O)O,,inconclusive: 15.5% [phenotype inactive]

# System: not listed separately
# Assay: qHTS assay to identify small molecule antagonists of the androgen receptor (AR) signaling pathway using the MDA cell line - cell viability counter screen (AID 743041; also: nearly all actives have a fitted effect of over 45% in size; also: potency is read from the fitted curve at half-maximal effect)
# Conditions: MDA-kb2 viability, CellTiter-Fluor, 16 h, cells co-treated with R1881 androgen agonist; viability change, negative = cytotoxic: at 70.3 µM (top of the series) unless noted
# Summary of the method: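 Cells were plated at 3,000 per well and left 5 h. Compounds in DMSO were then pinned in, followed by R1881. After 16 h at 37C, CellTiter-Fluor fluorescence gave viability.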
row,SMILES,Potency
1,CCC(C)(C)c1cc(O)c(C(C)(C)CC)cc1O,inactive
2,[O-][n+]1ccccc1SSc1cccc[n+]1[O-],active: 1.56 µM
3,[Cl][Bi]([Cl])([c]1ccccc1)([c]1ccccc1)[c]1ccccc1,active: 27.1 µM
4,O=C(Nc1ccccc1)c1cc(Cl)ccc1O,"inconclusive: 24.3 µM [cytotoxic, partial curve]"
5,O=C(O)c1ccccc1C(c1ccc(O)cc1)c1ccc(O)cc1,inactive
6,Cc1oc(-c2ccccc2)nc1CCOc1ccc(C[C@H](Nc2ccccc2C(=O)c2ccccc2)C(=O)O)cc1,active: 61.1 µM
7,S=C(SSSSSSC(=S)N1CCCCC1)N1CCCCC1,active: 1.51 µM
8,Cc1cc(F)ccc1-c1cc(N2CC[C@@H](O)[C@H]2CO)ncc1N(C)C(=O)C(C)(C)c1cc(C(F)(F)F)cc(C(F)(F)F)c1,"inconclusive: 53.6 µM [cytotoxic, single point]"
9,O=S1(=O)CC(Cl)(Cl)C(Cl)(Cl)C1,active: 13.7 µM
